# Laboratory results: PubChem BioAssay AID2676 (National Center for Advancing Translational Sciences (NCATS), 2010)
# Several values for one entry are separate records, joined by “and”; a condition that tells them apart may be missing. Equal values may be shown once. The campaign covered roughly 370,000 compounds. About 1,100 (0.3%) were called active. The shares of active, inactive and inconclusive entries below differ from those in the screen. The call rests on the fitted dose curve; in most records, active means well fitted activation curve with a large enough effect; inconclusive means small, poorly fitted or top-dose-only effect; inactive means flat fitted curve, though single readings scatter. Where the call is inconclusive, the potency comes from a doubtful curve fit.
# Target: Relaxin receptor 1 (Homo sapiens) (UniProt Q9HBX9)
# Assay: qHTS Assay for Agonists of the Relaxin Receptor RXFP1; further: nearly all actives have a fitted effect of over 60% in size
# Settings: HEK293T-RXFP1 cAMP TR-FRET, 30 min; series mostly up to 57.5 µM; activation: at the top concentration
# How it was run: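 Agonist response is measured as cAMP accumulation in an RXFP1-transfected HEK293T line under PDE4 inhibition. Values are scaled between buffer-only and 29 nM porcine relaxin, and EC50s come from standard Hill equation fits.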
# On the % scale 0 is the no-effect control and ±100 the full control effect; potency means the concentration at half of the fitted maximal effect; tags describe the fitted curve by direction and shape.
# UniProt Q9HBX9, sequence (Q9HBX9 whole entry, looked up): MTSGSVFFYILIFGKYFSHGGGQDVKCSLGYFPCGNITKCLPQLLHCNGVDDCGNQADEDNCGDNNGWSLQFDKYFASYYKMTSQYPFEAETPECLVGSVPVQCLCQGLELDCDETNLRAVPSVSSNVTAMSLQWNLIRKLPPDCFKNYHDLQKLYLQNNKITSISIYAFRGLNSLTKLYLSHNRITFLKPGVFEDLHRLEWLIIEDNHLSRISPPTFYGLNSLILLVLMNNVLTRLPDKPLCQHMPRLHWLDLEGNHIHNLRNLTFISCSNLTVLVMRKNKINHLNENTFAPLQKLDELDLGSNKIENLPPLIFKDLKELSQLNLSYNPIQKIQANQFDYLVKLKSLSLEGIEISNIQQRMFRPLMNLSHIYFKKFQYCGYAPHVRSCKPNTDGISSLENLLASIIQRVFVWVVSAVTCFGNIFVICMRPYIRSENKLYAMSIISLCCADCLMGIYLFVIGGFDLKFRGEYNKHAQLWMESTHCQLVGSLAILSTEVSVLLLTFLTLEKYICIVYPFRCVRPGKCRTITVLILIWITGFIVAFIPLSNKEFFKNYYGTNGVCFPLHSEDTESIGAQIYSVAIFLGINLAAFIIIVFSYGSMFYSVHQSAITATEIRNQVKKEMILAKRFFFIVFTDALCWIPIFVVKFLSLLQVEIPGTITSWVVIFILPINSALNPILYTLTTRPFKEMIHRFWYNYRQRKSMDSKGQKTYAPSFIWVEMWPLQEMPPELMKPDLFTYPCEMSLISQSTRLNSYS
Compound,Potency,activation
COc1ccc2sc3c(=O)[nH]c4ccccc4c3c2c1,"inconclusive: 25.1 µM [activator, single point]",
O=C(CSc1nc(-c2ccc(F)cc2)[nH]c1-c1ccc(F)cc1)Nc1ccc2c(c1)OCO2,,inactive: 2.09%
COc1ccc(-c2cc(C(F)(F)F)nc(SCC(=O)NCC(C)C)n2)cc1OC,"inconclusive: 25.1 µM [activator, single point]",
CC1CCCN(S(=O)(=O)c2ccc3c(c2)c(=O)nc2ccccn23)C1 (configuration not stated),"inconclusive: 28.2 µM [activator, partial curve] and inconclusive: 17.8 µM [activator, partial curve]",
COc1ccc(OC)c(/C=C2\Oc3cc(OCC(=O)N4CCC(C(=O)O)CC4)ccc3C2=O)c1,"inconclusive: 28.2 µM [activator, partial curve]",
Cn1c(=O)c2sccc2n2c(CCC(=O)NCc3ccc(Cl)cc3)nnc12,"inconclusive: 14.1 µM [activator, partial curve]",
Cc1occc1-c1nnc(SCC(=O)N2CCOCC2)n1CCc1ccccc1,,inactive: -0.283%
CCOc1ccc(NS(=O)(=O)c2ccc3[nH]c4c(c3c2)CCCCC4)cc1,,inactive: -3.23%
Cc1cccc(CCNC(=O)c2cc3c(=O)n(C)c4ccccc4c3n2C)c1,"inconclusive: 39.8 µM [activator, single point]",
COCCn1c(=NC(=O)c2ccc3c(c2)OCCO3)sc2cc(S(N)(=O)=O)ccc21,"inconclusive: 39.8 µM [activator, single point]",
CCn1c(SCC(=O)N2CCCCC2C)nc2c1c(=O)n(C)c(=O)n2C (configuration not stated),"inconclusive: 25.1 µM [activator, partial curve]",
COc1cccc(S(=O)(=O)NCc2ccc(C(=O)Nc3ccc(Cl)c(Cl)c3)cc2)c1,,inactive: -0.941%
CC(C)c1ccc(OCc2ccc(C(=O)N3CCN(c4ccccn4)CC3)cc2)cc1,,inactive: -3.83%
COC(=O)Cn1c(=NC(=O)CCS(=O)(=O)c2ccccc2)sc2c(OC)ccc(OC)c21,"inconclusive: 35.5 µM [activator, single point]",
O=C(Nc1ccc2c(c1)C(=O)NC2=O)c1ccc(S(=O)(=O)N2CCCC2)cc1,"inconclusive: 39.8 µM [activator, single point]",
Cc1cc(C)c(NC(=O)Cn2c(=O)n(CCC(=O)NCc3ccccc3Cl)c(=O)c3sccc32)c(C)c1,"inconclusive: 20 µM [activator, partial curve]",
O=C(Cc1ccc(F)cc1)NC1CCCCCC1,,inactive: 1.01%
CC(=O)Nc1ccc(Nc2ncnc3c2cnn3C)cc1,"inconclusive: 28.2 µM [activator, partial curve]",
N#Cc1cc(C#N)c(N2CCN(c3ccccn3)CC2)nc1N,"inconclusive: 39.8 µM [activator, single point]",
Cc1ccc(C(=O)N[C@H](C(=O)Nc2sccc2C(N)=O)C(C)C)cc1,,inactive: -1.1%
COc1ccc(N2CCN(C(=O)CCCCCn3c(=S)[nH]c4cc5c(cc4c3=O)OCO5)CC2)cc1,"inconclusive: 35.5 µM [activator, single point]",

Compound,Potency,activation
Cn1c(=O)c2c(ncn2CC(=O)N/N=C/C=C\c2ccccc2[N+](=O)[O-])n(C)c1=O,"inconclusive: 28.2 µM [activator, partial curve]",
Cn1c(NCCN2CCOCC2)nc2c1c(=O)n(Cc1cccc(Cl)c1)c(=O)n2C,,inactive: 1.15%
CCc1cc2ccc(OC)cc2nc1SCC(=O)Nc1cc(C)on1,"inconclusive: 39.8 µM [activator, single point]",
CCCCN(Cc1ccccc1)S(=O)(=O)c1ccc2c(c1)n(C)c(=O)c(=O)n2C,"inconclusive: 11.2 µM [activator, partial curve]",
CCCCNc1nc2c(-c3cccc(C)c3)nnn2c2ccccc12,"inconclusive: 31.6 µM [activator, partial curve]",
CCCN(CCC)C(=O)Cn1c(=O)n(CCCCCC(=O)Nc2ccccc2)c(=O)c2sccc21,"inconclusive: 39.8 µM [activator, single point]",
O=C(CCN1CCN(c2ccc(F)cc2)CC1)Nc1ccc(F)cc1,"inconclusive: 39.8 µM [activator, single point]",
Cc1cc(CNC(=O)C(C)n2cc([N+](=O)[O-])cn2)c2ccccc2n1 (configuration not stated),"inconclusive: 20 µM [activator, partial curve]",
O=C(CCSCc1ccc(Cl)cc1)NCCc1ccccc1,inactive,
COc1ccc(C(=O)N(CN2CCCC2=O)c2ccccc2OC)cc1OC,,inactive: -1.13%
O=C1NC(=S)S/C1=C\C=C\c1ccc([N+](=O)[O-])o1,,inactive: -0.715%
CCOc1ccc(NC(=O)Cn2cc(C(=O)c3ccc(CC)cc3)c(=O)c3cc4c(cc32)OCO4)cc1,"inconclusive: 31.6 µM [activator, single point]",
Cc1ccc(/C=C(\C#N)C(=O)Nc2ccc(Br)cc2)o1,"inconclusive: 22.4 µM [activator, partial curve]",
Cc1ccn2c(Nc3ccccc3C)c(-c3ccc(N4CCOCC4)cc3)nc2c1,"inconclusive: 39.8 µM [activator, single point]",
Cn1c(=O)c2sccc2n2c(CCCC(=O)NC3CCN(Cc4ccccc4)CC3)nnc12,"inconclusive: 17.8 µM [activator, partial curve]",
CCCc1ncc(CN2CCCC(C(=O)Nc3ccc(-c4cccc(OC)c4)cc3)C2)cn1 (configuration not stated),,inactive: 3.41%
COc1ccccc1C(=O)Nc1cccc(OCc2cc(=O)n3c(C)csc3n2)c1,,inactive: 1.18%
CC1(C)CC(O)CC(C)(C)N1CC(O)COCc1ccccc1 (configuration not stated),,inactive: -0.644%
Cc1nc(SCC(=O)N2CC(=O)Nc3ccccc32)nc(C)c1C,"inconclusive: 14.1 µM [activator, partial curve]",
CC(C)c1ccc(NC(=O)CSc2ncnc3c2sc2ccccc23)cc1,"inconclusive: 39.8 µM [activator, single point]",
O=C1c2ccccc2C(=O)N1Cc1nn2c(-c3ccc(Cl)cc3)nnc2s1,"inconclusive: 39.8 µM [activator, single point]",
